Screen size: about 48,000 compounds; about 550 (1.1%) were called active. About 4% were inconclusive and are not listed. Cut-off read from the data, not from the text of the source: active = potency below about 15 µM; inconclusive = mostly about 16 µM to 33 µM; inactive = weaker than that. This is one part of the list.
The compounds below were run against Lysosomal acid glucosylceramidase (Homo sapiens) (UniProt P04062) (assay: Glucocerebrosidase). Conditions: purified enzyme, resorufin glucoside fluorescence (screen aimed at inhibitors), 20 min.
UniProt P04062, sequence (P04062 whole entry, looked up): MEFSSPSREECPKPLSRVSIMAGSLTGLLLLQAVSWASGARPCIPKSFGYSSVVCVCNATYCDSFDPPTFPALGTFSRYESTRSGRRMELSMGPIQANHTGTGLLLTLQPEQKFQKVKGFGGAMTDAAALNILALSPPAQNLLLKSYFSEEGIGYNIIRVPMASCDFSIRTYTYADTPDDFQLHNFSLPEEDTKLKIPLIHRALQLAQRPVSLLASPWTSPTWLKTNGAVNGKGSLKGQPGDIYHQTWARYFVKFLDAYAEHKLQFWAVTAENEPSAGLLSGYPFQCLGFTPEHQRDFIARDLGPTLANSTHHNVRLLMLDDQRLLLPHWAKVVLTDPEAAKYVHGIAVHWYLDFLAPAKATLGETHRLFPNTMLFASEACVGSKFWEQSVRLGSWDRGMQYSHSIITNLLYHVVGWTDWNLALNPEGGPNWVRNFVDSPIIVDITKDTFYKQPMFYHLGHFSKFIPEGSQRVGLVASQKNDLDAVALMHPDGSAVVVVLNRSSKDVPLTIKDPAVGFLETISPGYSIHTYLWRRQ
In short: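 Compounds titrated against 0.2 nM normal enzyme, 30 uM resorufin beta-D-glucopyranoside substrate, citrate/phosphate buffer with taurocholate and tween-20, pH 5.9. Reaction ran 20 min at room temperature; fluorescence (Ex 548/Em 600) gave AC50.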
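Note: the screen sought inhibitors.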
Potency is the fitted concentration of half-maximal effect.

Potency, inactive:
CC(=O)OCCCN1C(=O)c2ccc(Br)cc2C1=O > 76.9 µM, O=C(NCC1CCCO1)c1cc2n(n1)C(C(F)(F)F)CC(c1ccc(F)cc1)N2 (stereo not given) > 76.9 µM, O=C(Cn1cnc2c(nnn2Cc2ccccc2F)c1=O)NCC1CCCO1 (stereo not given) > 76.9 µM, CCOC(=O)c1c(NC(=O)Cn2c(=O)oc3ccccc32)oc(C)c1C(C)=O > 76.9 µM, O=C(O)C1CCCCC1C(=O)NCc1ccc(F)cc1 (stereo not given) > 76.9 µM, CC(C)[C@H](NC(=O)Nc1ccc2c(c1)OCCO2)C(=O)O > 76.9 µM, O=S(=O)(O)c1nc2ccccc2n1Cc1ccc(Cl)cc1 > 76.9 µM, CCCCc1[nH]nc2c1C1(C(=O)N(CC)c3ccccc31)C(C#N)=C(N)O2 (stereo not given) > 76.9 µM, CNC(=O)CSc1nnc(-c2cc3c(C)nn(-c4ccccc4)c3s2)n1C > 76.9 µM, CC1(C(=O)N(CC(=O)NC2CCCC2)C2CCCC2)CC(=O)N=C2C=CC=CN21 (stereo not given) > 76.9 µM, Cc1noc(C)c1S(=O)(=O)N1CCC(C(=O)N2CCN(C(=O)c3ccco3)CC2)CC1 > 76.9 µM, CCOC(=O)N1CCN(C(=O)c2csc3c2CCCCC3)CC1 > 76.9 µM, CC(C)(C)n1nc2c(c1NC(=O)COc1ccc(Cl)cc1)CSC2 > 76.9 µM, CCCCOc1ccc(C(=O)NCc2ccco2)cc1 > 76.9 µM, Cc1cc(C)c2[nH]c(=O)c(C(c3nnnn3C3CCCC3)N3CCOCC3)cc2c1 (stereo not given) > 76.9 µM, CN(CC(=O)N1CC=C(c2ccccc2)CC1)S(=O)(=O)c1cnc[nH]1 > 76.9 µM, CCOC(=O)C1CCCN(C(=O)C2CC(=O)N(c3ccc(C)cc3)C2)C1 (stereo not given) > 76.9 µM, CCOC(=O)c1c(NC(=O)c2ccc(-n3cnnn3)cc2)sc2c1CCCC2 > 76.9 µM, CSc1nc2nc(C)cc(-c3ccccc3)n2n1 > 76.9 µM, CCS(=O)(=O)NCc1ccc2[nH]c3c(c2c1)CCCC3 > 76.9 µM, O=S(=O)(Nc1ccc(C(F)(F)F)cc1)c1cnc[nH]1 > 76.9 µM, Brc1ccc(-c2nn3c(-c4ccccn4)nnc3s2)o1 > 76.9 µM, Cc1csc(NC(=O)CSc2nnc(C)s2)n1 > 76.9 µM, CCN(CC)CC(=O)Nc1c(Br)ccc2c1OCO2 > 76.9 µM, COCCCNC(=O)CCNS(=O)(=O)c1ccc(C)cc1 > 76.9 µM, COC(=O)c1ccc(Oc2nc(Nc3ccccc3)nc(N(C)C)n2)cc1 > 76.9 µM, COc1ccc(C2Sc3nncn3N2Cc2ccc(C#N)cc2)cc1 (stereo not given) > 76.9 µM, COc1ccc(NC(=O)c2sc(SC)nc2N)cc1 > 76.9 µM, CCC1SC2=NCCN2C1(O)c1ccc(Cl)cc1 (stereo not given) > 76.9 µM, CCn1nnc(NC(=O)c2cccc(-c3cc4ccccc4oc3=O)c2)n1 > 76.9 µM, CCOC(=O)CN1C(=O)C(C)(C)Oc2ccc(C(=O)Nc3ccccc3OC)cc21 > 76.9 µM, COc1ccc(CN2CCN(C)CC2)cc1OCc1ccccc1 > 76.9 µM, Cc1ccc(S(=O)(=O)NCC(=O)N(CC(=O)NCc2ccccc2)CC2CCCO2)cc1 (stereo not given) > 76.9 µM, COC(=O)c1ccccc1NC(=O)CSc1n[nH]c(CC(C)C)n1 > 76.9 µM, CCOc1ccc(C(C#N)N2CCOCC2)cc1OC (stereo not given) > 76.9 µM, COc1ccc(C(=O)CSc2nnc(C(CO)NC(=O)c3ccc(OC)cc3)n2C)cc1 (stereo not given) > 76.9 µM, c1ccc(-c2cc(N3CCCCC3)ncn2)cc1 > 76.9 µM, CCN(CC)/C(=N/O)NC(=O)NS(=O)(=O)c1ccc(C)cc1 > 76.9 µM, CNC(=O)c1cc2ccc(OC)cc2oc1=O > 76.9 µM, CCOC(=O)C1(C)NC(c2cc(OC)c(OC)c(OC)c2)C2C(=O)N(CC)C(=O)C21 (stereo not given) > 76.9 µM, CCC(=O)Nc1cccc(NC(=O)CSc2nnc(C3CC3)n2C)c1 > 76.9 µM, CCCCn1c(SCC(=O)c2cc(OC)ccc2OC)nc2cc(S(N)(=O)=O)ccc21 > 76.9 µM, CCOCCCn1c(=N)c(C(=O)NCc2ccc3c(c2)OCO3)cc2c(=O)n3cccc(C)c3nc21 > 76.9 µM, CCN(CC)CCCNC(=O)c1sc2nc(-c3ccc(F)cc3)cn2c1C > 76.9 µM, O=C(NCc1ccco1)c1nc(-c2ccccc2)n(-c2ccccc2)n1 > 76.9 µM, COc1ccc(S(=O)(=O)NCC(=O)N(CC(=O)NCC2CCCO2)c2cc(C)ccc2C)cc1 (stereo not given) > 76.9 µM, CC(CN1CCOCC1)OC(=O)COc1ccc(F)cc1 (stereo not given) > 76.9 µM, Cc1cccc(NC(=O)C2CCCN(C(=O)NC3CCCCC3)C2)c1C (stereo not given) > 76.9 µM, CCOC(=O)Nc1cc(C)ccc1OC > 76.9 µM, Cc1ccc(-c2nnn(CC(=O)Nc3ccc4nn(-c5ccccc5)nc4c3)n2)o1 > 76.9 µM, NC(=O)C1CCCN(S(=O)(=O)c2ccccc2)C1 (stereo not given) > 76.9 µM, CC1(C)CC(NS(=O)(=O)c2ccccc2)CC(C)(C)N1 > 76.9 µM, O=C1c2ccccc2C(=O)N1Cc1nc2ccccc2c(=O)n1CCCN1CCOCC1 > 76.9 µM, CN(C)C1NC(=O)c2cc(-c3ccccc3)sc2N1 (stereo not given) > 76.9 µM, CCOc1cccc(C2C(C(=O)c3ccc(C)o3)=C(O)C(=O)N2c2nccs2)c1 (stereo not given) > 76.9 µM, O=C(Nc1nccs1)c1cccc(S(=O)(=O)N2CCCCC2)c1 > 76.9 µM, COc1ccc(OC)c(NC(=O)NC2(C(F)(F)F)Oc3ccccc3O2)c1 > 76.9 µM, O=C(CSc1ncc(-c2ccccc2)nn1)NCc1ccco1 > 76.9 µM, CC(=O)N1CCC2(CC1)CC(=O)c1cc(OCC(=O)NCc3ccco3)ccc1O2 > 76.9 µM, Cc1ccc(C(C(=O)NC2CCCCC2)N(C(=O)c2csnn2)C2CCCC2)o1 (stereo not given) > 76.9 µM, CC(=O)Oc1c(S(=O)(=O)c2ccccc2)c(C)nn1C(C)(C)C > 76.9 µM, O=C(Cc1cccs1)Nc1ccc(S(=O)(=O)Nc2ncccn2)cc1 > 76.9 µM, O=C(Cc1cccs1)Nc1nncs1 > 76.9 µM, COc1ccc2c(Cl)c(C(N)=O)sc2c1 > 76.9 µM, COc1ccc(OC)c(-c2cc(C(=O)NCc3cccs3)no2)c1 > 76.9 µM, Cc1c2c(n3c(nc4ccccc43)c1C#N)N(Cc1cccnc1)CC2 > 76.9 µM, CC1Cc2cc(/C(O)=C3/C(=O)C(=O)N(CCN4CCOCC4)C3c3cccc(Cl)c3)ccc2O1 (stereo not given) > 76.9 µM, CCOC(=O)C1=C(CC)Nc2ccccc2N=C1NC(=O)Nc1ccccc1OC > 76.9 µM, O=C(COc1ccc(S(=O)(=O)NC2CCCCC2)cc1)NCC1CCCO1 (stereo not given) > 76.9 µM, CCOC(=O)c1c(C)c(C(=O)N2CCCCCC2)c(C)n1CC > 76.9 µM, COc1ccccc1N1CCN(C(=O)CSc2nnc(NC(=O)c3ccco3)s2)CC1 > 76.9 µM, O=C(O)CCn1c(C2CCCCC2)nc2ccccc21 > 76.9 µM, CCOC(=O)N1CCC(NC(=O)Cc2cn(C)c3ccccc23)CC1 > 76.9 µM, CCOC(=O)C1Cc2c([nH]c3ccccc23)CN1 (stereo not given) > 76.9 µM, c1cc(CSc2nnc(-c3ccc4c(c3)OCO4)o2)ccn1 > 76.9 µM, CCN(C)c1ccc(/C=N\n2nnnc2N)cc1 > 76.9 µM, CC1(C)Cc2ccccc2-c2nnc(SCC(=O)Nc3nc4ccccc4s3)n21 > 76.9 µM, Cc1ccc(C2c3sc(=O)[nH]c3SC3C(=O)NC(=O)C32)cc1 (stereo not given) > 76.9 µM, COCc1cc(C2C(C(=O)c3ccco3)=C(O)C(=O)N2CCOCCO)ccc1O (stereo not given) > 76.9 µM, CS(=O)(=O)N(CC(=O)Nc1ccc2c(c1)OCCO2)Cc1ccccc1 > 76.9 µM, O=C(NCc1ccccc1Cl)C1CCN(S(=O)(=O)N2CCCCC2)CC1 > 76.9 µM, CCCc1nc2ccccc2n2cc3c(=O)n(C)c(=O)n(C)c3c12 > 76.9 µM, CCn1c(=N)n(CC(=O)OC)c2ccccc21 > 76.9 µM, CC1CC(C)CN(Cc2nc3c(c(=O)n(C)c(=O)n3C)n2CCN2CCOCC2)C1 (stereo not given) > 76.9 µM, Cc1ccccc1NC(=O)C1Cc2ccccc2C(=O)O1 (stereo not given) > 76.9 µM, CCCSc1nnc(-c2ccccc2NC(=O)CC)c(=O)[nH]1 > 76.9 µM, CCCOc1ccc(/C(O)=C2/C(=O)C(=O)N(CCN(C)C)C2c2ccc(O)c(OC)c2)cc1 (stereo not given) > 76.9 µM, S=c1oc(-c2ccncc2)nn1CCc1ccncc1 > 76.9 µM, CN(c1ccc(C(=O)NCc2ccc3c(c2)OCO3)cc1)S(C)(=O)=O > 76.9 µM, COc1cc(C2C(C#N)=C(N)Oc3cc(C)n(CC4CCCO4)c(=O)c32)cc2c1OCO2 (stereo not given) > 76.9 µM

From PubChem BioAssay AID360 (National Center for Advancing Translational Sciences (NCATS), 2006)
